{"source": "PubChem BioAssay AID504832", "about": "(National Center for Advancing Translational Sciences (NCATS), 2011)", "note": "Hit rate of the full screen: of about 310,000 compounds, about 18,000 (5.8%) were called active. Inconclusive results, whose numbers are uncertain, are shown with a selection of clear calls. The call rests on the fitted dose curve; in most records, active means well fitted inhibition curve with a large enough effect; inconclusive means small, poorly fitted or top-dose-only effect, or another doubt; inactive means no such curve, though single readings can be large or run the other way. No potency is given beside an inconclusive call; the fits are too rough. On the % scale 0 is the no-effect control and ±100 the full control effect; potency means the concentration at half of the fitted maximal effect; tags describe the fitted curve by direction and shape.", "data": [{"experiment": "Primary qHTS for delayed death inhibitors of the malarial parasite plastid, 48 hour incubation", "conditions": "P. falciparum luciferase growth in erythrocytes; series mostly up to 28.7 µM; activity change, negative = inhibition: at the top concentration", "summary_of_the_method": "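Luciferase-expressing P. falciparum in infected erythrocytes (2% hematocrit, 0.1% parasitemia final) in RPMI 1640/0.5% Albumax were exposed to compound for 48 hours at 37 C, 5% CO2; growth read as luminescence.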", "values": [{"smiles": "N#Cc1c(-c2c(Cl)cccc2Cl)noc1/C=C/Nc1ccc(C(=O)O)cc1", "Potency": "inconclusive [inhibitor, single point]"}, {"smiles": "Cc1cc2n(n1)SC(Nc1ccccc1)N2", "note": "(stereo unspecified)", "activity change, negative = inhibition": "inactive: 61%"}, {"smiles": "Cc1ccccc1OCCn1c(C)nc2ccccc21", "Potency": "inconclusive [inhibitor, single point]"}, {"smiles": "Cc1ccccc1-c1nnc(-c2ccccc2)o1", "activity change, negative = inhibition": "inactive: 240%"}, {"smiles": "Cc1noc(C)c1COC(=O)COc1cccc2c1OC(C)(C)C2", "activity change, negative = inhibition": "inactive: 3.66%"}, {"smiles": "Cc1cccc(C)c1NC(=O)CN(C)C(=O)CCc1nc2sc3c(c2c(=O)[nH]1)CCCC3", "Potency": "inconclusive [inhibitor, single point]"}, {"smiles": "CC(=O)c1c(C)[nH]c(C(=O)NCCc2ccccc2)c1C", "activity change, negative = inhibition": "inactive: 20.6%"}, {"smiles": "Cc1ccccc1NC(=O)N1CCC(C(=O)c2ccc(F)cc2)CC1", "activity change, negative = inhibition": "inactive: 4.22%"}, {"smiles": "COC(=O)C(NC(=O)CCc1c(C)nc2c(c(C)nn2-c2ccccc2)c1C)C(C)C", "note": "(stereo unspecified)", "Potency": "active: 6.57 µM"}, {"smiles": "Cc1ccc(C(=O)NNC(=O)c2ccccc2OCc2c(C)noc2C)cc1", "activity change, negative = inhibition": "inactive: -21.8%"}, {"smiles": "CCCCN1CCNC[C@@H]1Cc1ccc(O)cc1", "Potency": "inconclusive [inhibitor, partial curve, poor fit]"}, {"smiles": "Cc1cc(C)c(S(=O)(=O)/N=C2/C=C(SCC(=O)O)C(=O)c3ccccc32)cc1C", "Potency": "active: 11.7 µM"}, {"smiles": "O=C(CSc1nnnn1C1CCCC1)NCc1ccccc1", "Potency": "inconclusive [inhibitor, single point]"}, {"smiles": "CC1CCCCN1CCNC(=O)c1ccc2c(c1)N(Cc1ccccc1F)C(=O)c1ccccc1S2=O", "note": "(stereo unspecified)", "Potency": "inconclusive [inhibitor, partial curve]"}, {"smiles": "COc1ccc(/C=N/Nc2nc(Nc3ccccc3)nc(N3CCCC3)n2)cc1", "Potency": "inconclusive [inhibitor, single point]"}, {"smiles": "COCC(C)NC(=O)CCSc1nc(-c2ccc(OC)cc2)cc(C(F)(F)F)n1", "note": "(stereo unspecified)", "Potency": "active: 5.22 µM"}, {"smiles": "CCOc1ccccc1N1CCN(C(=O)c2ccccc2OCc2c(C)noc2C)CC1", "Potency": "inconclusive [inhibitor, single point]"}, {"smiles": "CCn1c(=O)c2sccc2n2c(CCCC(=O)NC3CCN(Cc4ccccc4)CC3)nnc12", "activity change, negative = inhibition": "inactive: 11.1%"}, {"smiles": "NS(=O)(=O)c1ccc(CCNC(=O)C2CCC(CNS(=O)(=O)c3ccc(Br)s3)CC2)cc1", "note": "(stereo unspecified)", "Potency": "inconclusive [inhibitor, partial curve, poor fit]"}, {"smiles": "O=C(NCCCN1CCCC1)Nc1ccc(F)cc1", "activity change, negative = inhibition": "inactive: 19.7%"}, {"smiles": "C/C(=C\\c1ccccc1)CN1CCC(C(=O)N2CCCCC2)CC1", "activity change, negative = inhibition": "inactive: 1.13%"}, {"smiles": "COc1ccc(OC)c(NC(=O)CSc2nnc(Cc3cccn3C)n2-c2ccc(F)cc2)c1", "Potency": "active: 13.1 µM"}, {"smiles": "O=C(CSc1nccc(-c2cccs2)n1)Nc1ccc(F)c(Cl)c1", "Potency": "inconclusive [inhibitor, single point]"}, {"smiles": "C=CCN(CC=C)S(=O)(=O)c1ccc(NC(=S)NC(=O)/C=C/c2ccccc2)cc1", "Potency": "inconclusive [inhibitor, full curve, poor fit]"}, {"smiles": "CNS(=O)(=O)c1cn(CC(=O)N(C)Cc2ccccc2)cc1S(=O)(=O)NC", "activity change, negative = inhibition": "inactive: 26.6%"}, {"smiles": "O=C(NNC(=O)C1CC(c2cccs2)=NO1)Nc1ccc(Cl)cc1", "note": "(stereo unspecified)", "activity change, negative = inhibition": "inactive: -10.7%"}, {"smiles": "CCN(c1ccc(N=Cc2c(O)n(Cc3ccc(OC)cc3)c(=O)c3ccccc23)cc1)C(C)C", "Potency": "inconclusive [inhibitor, partial curve, poor fit]"}, {"smiles": "CC1CCCCC1NC(=O)CN1c2cccc3cccc(c23)S1(=O)=O", "note": "(stereo unspecified)", "Potency": "inconclusive [inhibitor, partial curve, poor fit]"}, {"smiles": "COc1cccc(C(c2nnnn2CS(=O)(=O)c2ccc(C)cc2)N2CCN(C)CC2)c1OC", "note": "(stereo unspecified)", "Potency": "inconclusive [inhibitor, single point]"}, {"smiles": "O=C(CCCn1c(=S)[nH]c2cc3c(cc2c1=O)OCO3)NCCc1ccccc1Cl", "activity change, negative = inhibition": "inactive: -26.2%"}, {"smiles": "Cc1ccc(C)c(N2CCN(CCCNC(=O)Cn3cc4c(n3)CCCCC4)CC2)c1", "Potency": "inconclusive [inhibitor, single point]"}, {"smiles": "COc1cccc(CN(Cc2cccnc2)S(=O)(=O)c2ccc(-n3cnnn3)c(C)c2)c1", "Potency": "inconclusive [inhibitor, partial curve, poor fit]"}, {"smiles": "Cn1c(CSCC(=O)Nc2ccccc2)nnc1SCc1ccccc1", "Potency": "inconclusive [inhibitor, single point]"}, {"smiles": "CCCCn1c(SCC(=O)NC(C)CC)nc2ccc(N3CCOCC3)cc2c1=O", "note": "(stereo unspecified)", "Potency": "inconclusive [inhibitor, full curve, poor fit]"}, {"smiles": "COc1ccc(Nc2cc(=O)n(-c3ccccc3)c3c2c(=O)n(C)c(=O)n3C)cc1", "Potency": "inconclusive [inhibitor, single point]"}, {"smiles": "O=C(NCc1ccco1)C(c1cccnc1)N(C(=O)Cn1nnc2ccccc21)c1ccc(F)cc1", "note": "(stereo unspecified)", "Potency": "inconclusive [inhibitor, partial curve, poor fit]"}, {"smiles": "Cc1cccc(C(=O)NCC(=O)N2CCN(S(=O)(=O)c3ccccc3)CC2)c1", "Potency": "inconclusive [inhibitor, single point]"}, {"smiles": "COc1ccc(N2C(=O)/C(=C/c3ccc([N+](=O)[O-])cc3)C=C2c2ccccc2)cc1", "Potency": "inconclusive [inhibitor, full curve, poor fit]"}, {"smiles": "CCOC(=O)CN1C(=O)C2Cc3ccccc3CN2C1=S", "note": "(stereo unspecified)", "Potency": "inconclusive [inhibitor, single point]"}, {"smiles": "O=C(Oc1ccc(Cl)c2cccnc12)c1cccc([N+](=O)[O-])c1", "Potency": "inconclusive [inhibitor, single point]"}, {"smiles": "COc1ccc(C(C)(C)C)cc1NC(=O)c1cncc(Br)c1", "Potency": "inconclusive [inhibitor, partial curve, poor fit]"}, {"smiles": "COc1ccc(-c2csc(N(C)C(=O)c3cccs3)n2)cc1", "activity change, negative = inhibition": "inactive: 86.8%"}, {"smiles": "CC1CCc2c(C(=O)Nc3ccc(OC(F)(F)F)cc3)csc2C1", "note": "(stereo unspecified)", "activity change, negative = inhibition": "inactive: -65.9%"}, {"smiles": "CCCCN(CC)Cc1ccc(CNC(=S)Nc2c(C)cc(C)cc2C)o1", "Potency": "inconclusive [inhibitor, single point]"}, {"smiles": "COc1ccc(CCNC(=O)c2cc(S(=O)(=O)N3CCCCCC3)ccc2OC)cc1OC", "Potency": "inconclusive [inhibitor, partial curve]"}, {"smiles": "CCN1CCN(C(=O)c2cc(S(=O)(=O)Nc3ccc(S(C)(=O)=O)cc3)ccc2Cl)CC1", "activity change, negative = inhibition": "inactive: -16.3%"}, {"smiles": "O=C(c1cccc(S(=O)(=O)N2CCOCC2)c1)N1CCCc2ccccc21", "activity change, negative = inhibition": "inactive: -29.1%"}, {"smiles": "COCCNc1oc(-c2cccs2)nc1S(=O)(=O)c1ccc(C)cc1", "Potency": "inconclusive [inhibitor, single point]"}, {"smiles": "O=C(O)CCCCCN1C(=O)/C(=C/c2ccncc2)SC1=S", "Potency": "inconclusive [inhibitor, partial curve, poor fit]"}, {"smiles": "COC(=O)C1=C(CS(=O)(=O)c2ccc(Cl)cc2)NC(=O)NC1c1ccc(O)cc1", "note": "(stereo unspecified)", "activity change, negative = inhibition": "inactive: 1.71%"}, {"smiles": "O=C(N/N=C/c1ccc([N+](=O)[O-])o1)C1CCCC1", "Potency": "inconclusive [inhibitor, partial curve]"}, {"smiles": "Cc1c(C(N)=O)sc2ncn(CC(=O)NCCc3ccccc3)c(=O)c12", "activity change, negative = inhibition": "inactive: 12.9%"}, {"smiles": "COc1ccc(CC(C)N2CCN(Cc3ccccc3)CC2)c(OC)c1", "note": "(stereo unspecified)", "Potency": "inconclusive [inhibitor, single point]"}, {"smiles": "O=C(NC1CCCC1)c1cc(-c2ccc(Cl)cc2)on1", "activity change, negative = inhibition": "inactive: 82.6%"}, {"smiles": "NC(=O)c1ccc(NC(=O)COC(=O)c2c3c(nc4ccccc24)/C(=C\\c2cccs2)CCC3)cc1", "Potency": "inconclusive [inhibitor, full curve, poor fit]"}, {"smiles": "O=C(O)c1ccc2cccnc2c1O", "activity change, negative = inhibition": "inactive: -1.15%"}, {"smiles": "CCn1cnc2c(Nc3cccc(Cl)c3)nc(C#N)nc21", "Potency": "inconclusive [inhibitor, single point]"}, {"smiles": "Cc1ccc(NC(=O)NC2CCCCCCC2)cc1C", "activity change, negative = inhibition": "inactive: 3.7%"}, {"smiles": "COc1ccc(CNC(=O)c2ccc(C(C)(C)C)cc2)cc1", "activity change, negative = inhibition": "inactive: 97.1%"}, {"smiles": "Cc1ccc(C(=O)N2CCN(Cc3nc4sc5c(c4c(=O)[nH]3)CCCC5)CC2)cc1", "Potency": "inconclusive [inhibitor, partial curve]"}, {"smiles": "CCOC(=O)N1CCN(CC(O)COc2ccccc2C(C)C)CC1", "note": "(stereo unspecified)", "Potency": "inconclusive [inhibitor, partial curve, poor fit]"}, {"smiles": "C[n+]1c(/C=C/c2ccc3c(c2)OCO3)ccc2ccccc21", "activity change, negative = inhibition": "inactive: 429%"}, {"smiles": "Cc1ccc(CC(=O)N2CCN(C(=O)c3ccco3)CC2)cc1", "Potency": "inconclusive [inhibitor, partial curve, poor fit]"}, {"smiles": "CCC1(C)Cc2ccccc2C(=S)N1", "note": "(stereo unspecified)", "activity change, negative = inhibition": "inactive: -16.1%"}, {"smiles": "Cc1cnccc1CN(C)Cc1cn(C)nc1-c1ccc(Oc2ccccc2)cc1", "Potency": "inconclusive [inhibitor, partial curve]"}, {"smiles": "Cc1c(OC(C)C(=O)NCCCN2CCOCC2)ccc2c3c(c(=O)oc12)CCCC3", "note": "(stereo unspecified)", "Potency": "inconclusive [inhibitor, full curve]"}, {"smiles": "CC(C(=O)N(C)CC(=O)Nc1ccccc1C(F)(F)F)N1C(=O)c2ccccc2C1=O", "note": "(stereo unspecified)", "Potency": "inconclusive [inhibitor, single point]"}, {"smiles": "CC(=O)N1CCN(CC(=O)Nc2c(Cl)ccc(C)c2Cl)CC1", "activity change, negative = inhibition": "inactive: 0%"}, {"smiles": "COC(=O)c1oc2ccccc2c1NC(=O)/C=C/C(=O)O", "activity change, negative = inhibition": "inactive: -7.38%"}, {"smiles": "COc1cccc(CN2CCCC(C(=O)Nc3ccc(-c4cscn4)cc3)C2)c1", "note": "(stereo unspecified)", "Potency": "inconclusive [inhibitor, single point]"}, {"smiles": "O=C(CN(C(=O)CCC(=O)Nc1nccs1)c1ccc(F)c(Cl)c1)NCc1ccco1", "Potency": "inconclusive [inhibitor, partial curve, poor fit]"}]}]}
